According to PubChem BioAssay AID1508623 (National Center for Advancing Translational Sciences (NCATS), 2021):
The whole screen tested about 48,000 compounds, of which about 450 (0.94%) were called active. Not shown: some 19% with an inconclusive outcome. Calls come from the whole dose curve; as a rule, active = well fitted inhibition curve with a large enough effect; inconclusive = small, poorly fitted or top-dose-only effect; inactive = no such curve, though single readings can be large or run the other way. The list shows a part of the results.

Assay: Primary qHTS for Identification of Small Molecule Inhibitors of Huntingtin Promoter Activity; note: nearly all actives have a fitted effect of over 50% in size
Conditions: HEK293 HTT promoter firefly luciferase reporter (activity 0% = vehicle and -100% = no light), 24 h; series mostly up to 57.5 µM; activity change, negative = inhibition: at the top concentration
In short: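 HEK293 luciferase promoter-reporter cells (2,500/well) plated 24 h, then compounds added at up to 57.5 uM final for 24 h at 37 °C. Firefly luminescence by Dual-Glo, normalized to vehicle (0%) and zero RLU (-100%).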
Potency is the fitted concentration of half-maximal effect.

Compound	activity change, negative = inhibition	Potency
CC(C)c1ccc(NC(=O)C2CCCN(S(=O)(=O)c3cccc4nonc34)C2)cc1 (stereo unspecified)	inactive: -11.9%	–
Cc1cc(C)c(NC(=O)CSc2nnc3[nH]c(=O)cc(C)n23)c(C)c1	inactive: -4.54%	–
O=c1c2ccccc2n2c(-c3ccc(F)c(F)c3)nnc2n1CCc1ccccc1	inactive: 0.888%	–
CCC(=O)Nc1ccc2nc(SCC(=O)N3CCc4ccccc43)sc2c1	inactive: -10.7%	–
CCOC(=O)c1ccccc1NC1(c2ccc(OC)cc2)C(=O)c2ccccc2C1=O	inactive: -20%	–
CCOC(=O)c1c(S(=O)(=O)N2CCCC(C(=O)Nc3ccc(C)cc3C)C2)c(C)n(CC)c1C (stereo unspecified)	inactive: -7.31%	–
COC(=O)c1ccc(C2c3c(oc4cc(C)c(C)cc4c3=O)C(=O)N2c2ccccn2)cc1 (stereo unspecified)	inactive: -4.72%	–
Cc1cc(C)c(NC(=O)Cn2c(=O)n(CCC(=O)NCc3ccc4c(c3)OCO4)c(=O)c3ccccc32)c(C)c1	inactive: -16.5%	–
CCOC(=O)C1CCN(C(=O)CSc2c3c(nc4ccc(Cl)cc24)CCCC3)CC1	inactive: -30.4%	–
CC(=O)Nc1ccc(C(=O)CSc2nnc3cc(C)c4ccccc4n23)cc1	inactive: -9.55%	–
COc1ccc(CCC(=O)NC2CC(=O)N(c3ccc(C)c(C)c3)C2)cc1 (stereo unspecified)	inactive: -13.4%	–
Cc1ccc(NC(=O)c2sc3nc(-c4ccc(F)cc4)cn3c2C)c(C)c1	inactive: -15.2%	–
Cc1ccc(CNC(=O)c2ccc(-c3nc(CN4CCc5ccccc54)c(C)o3)cc2)cc1	inactive: -36.2%	–
CCCCNC(=O)c1ccc2c(=O)n(-c3ccccc3)c(=O)[nH]c2c1	inactive: -17.8%	–
CCOc1ccc(CCNC(=O)CSc2cc(=O)n(C)c3ccccc23)cc1OCC	inactive: -15.7%	–
COc1ccc(CNC(=O)C(=O)NCC(c2ccc3c(c2)OCO3)N2CCOCC2)cc1 (stereo unspecified)	inactive: -2.51%	–
CCOC(=O)Cn1c(=O)oc2cc(S(=O)(=O)NCc3ccc(F)cc3)ccc21	inactive: -17.4%	–
CCCCC(CC)COC(=O)/C=C/c1ccc(OC)cc1 (stereo unspecified)	inactive: 14.3%	–
Cc1ccc(Cl)cc1N1CCN(C(c2ccc(F)cc2)c2nnc(-c3ccccc3)o2)CC1 (stereo unspecified)	inactive: -8.83%	–
O=C(CSc1n[nH]c(-c2ccccc2)n1)N1CCCCC1	inactive: 55%	–
COC(=O)c1sccc1S(=O)(=O)N1CCN(c2cccc(C)c2C)CC1	inactive: -19.4%	–
CCOc1ccc(CC(=O)NCCc2csc3nc(-c4ccccc4F)nn23)cc1	inactive: -13.1%	–
CCN(CC)CCc1nc(-c2ccccc2)no1	inactive: 6.98%	–
CCc1ccc(-n2nc3ccc(NC(=O)c4cc5ccccc5o4)cc3n2)cc1	inactive: -4.65% [at 11.5 µM]	–

Compound	activity change, negative = inhibition	Potency
CC(C=CC(=O)NO)=C[C@@H](C)C(=O)c1ccc(N(C)C)cc1	inactive: 25.2%	–
CCOc1ccc(-c2cc3c(=O)n(Cc4nc(-c5cccc(OC)c5OC)oc4C)ccn3n2)cc1Cl	inactive: -1.81%	–
CCN(Cc1ccc(OC)cc1)c1ccc(-c2nc(-c3ccncc3)no2)cc1[N+](=O)[O-]	inactive: -33%	–
Cc1cc(C)c(Cn2c3ccccc3c3cnn(CC(=O)NCCCc4ccccc4)c(=O)c32)c(C)c1	inactive: -24.4%	–
O=C(NCCc1ccccc1)c1ccc(Cn2c(SCc3ccc(F)cc3)nc3cccnc32)cc1	inactive: -14.4%	–
Cc1ccccc1Nc1c(-c2ccsc2)nc2c(C)cccn12	inactive: -13.6%	–
O=C(NCc1cccc(Cl)c1)c1cccn1-c1nnc(N2CCCC2)s1	inactive: -15%	–
COc1ccc(OC)c(S(=O)(=O)N2Cc3ccccc3CC2C(=O)Nc2ccc(C(C)=O)cc2)c1 (stereo unspecified)	inactive: -11.2%	–
COc1ccc(OC)c(CCNC(=O)CCn2c(=O)c3cccn3c3cccnc32)c1	inactive: 14.4%	–
CCCCN(c1ccccc1)c1ncnc2c1cnn2-c1ccc(Cl)cc1	inactive: -21.1%	–
CC(C)Cn1c(=O)c2ccccc2n2c(-c3ccc(Br)cc3)nnc12	inactive: -9.2%	–
Cc1ccc(CN(Cc2ccco2)c2cnc(S(C)(=O)=O)nc2C(=O)Nc2ccc(Br)cc2)o1	inactive: -37.8%	–
Cc1ccccc1NC(=O)Cn1c(=O)n(Cc2ccc3c(c2)OCO3)c(=O)c2oc3ccccc3c21	inactive: -1.44%	–
Cc1ccc(-c2cn3cccc(C)c3n2)cc1NS(=O)(=O)c1ccccc1	inactive: -6.66%	–
CCCCc1nc(Cl)c(CO)n1Cc1ccc(-c2ccccc2-c2nn[nH]n2)cc1	inactive: 8.31%	–
Cc1ccc(-c2nn3c(C)nnc3c3ccccc23)cc1S(=O)(=O)NCCO	inactive: 16.4%	–
CCOc1cc(C(=O)OCc2cc(=O)n3c(C)csc3n2)cc(OCC)c1OCC	inactive: -12.2%	–
CC(=O)Nc1ccc(S(=O)(=O)NCC2CCC(C(=O)NCCCOC(C)C)CC2)cc1 (stereo unspecified)	inactive: 18.5%	–
CS(=O)(=O)c1ncc(N(Cc2ccccc2)Cc2ccco2)c(C(=O)Nc2cccc(C(F)(F)F)c2)n1	inactive: -34.3%	–
CCOC(=O)c1c(NC(=O)c2cc(-c3ccccc3)on2)sc2c1CCCC2	inactive: -8.83%	–
CC(C)Cn1c(=O)c2sccc2n2c(CCCC(=O)Nc3ccc(Cl)cc3)nnc12	inactive: -18.5%	–
Cc1cc(C)c(NC(=O)CSc2nc(=O)n(Cc3ccco3)c3c2CCC3)c(C)c1	inactive: -1.81%	–
COc1cccc(-c2nc(SCc3cc(=O)c4cc(Cl)ccc4[nH]3)n[nH]2)c1	inactive: -29.9%	–
CCc1ccc(CN(Cc2ccco2)C(=O)c2cc(-c3ccc(Cl)cc3)on2)cc1	inactive: -38.4%	–

Compound	activity change, negative = inhibition	Potency
CCOc1ccc(-c2nonc2NC(=O)c2ccccc2C)cc1	inactive: -12.9%	–
Cc1ccc2c(c1)c(=O)c(S(=O)(=O)c1ccc(F)cc1)cn2CC(=O)Nc1ccc2c(c1)OCO2	inactive: -24.5%	–
Cc1ccc(Cl)cc1NC(=O)NC1COc2ccccc2C1 (stereo unspecified)	inactive: -5.98%	–
CCN(CC)C(=O)c1sc2c(c1C)c(=O)n(-c1ccc(C)c(C)c1)c(=O)n2CC(=O)Nc1ccc(F)cc1	inactive: -28.6%	–
O=C(Cc1ccc(Cl)cc1)Nc1ccc2oc(-c3ccccc3)nc2c1	inactive: 18.4%	–
Cc1cccc(C2N3CC4(C(C)C)CN2CC(C(C)C)(C3)C4=O)c1 (stereo unspecified)	inactive: -18.5%	–
Cc1ccc(-n2ncc(C(=O)NCc3cccs3)c2C2CCN(C(=O)OC(C)(C)C)CC2)cc1C	inactive: -30%	–
CCC(Cn1nnc2ccccc2c1=O)NC(=O)Nc1cc(Cl)ccc1OC (stereo unspecified)	inactive: -12.8%	–
Cc1cccc(Cn2c(CNS(=O)(=O)c3ccc(Cl)s3)nc3cccnc32)c1	inactive: -19.6%	–
CCOc1ccc(-c2cc3c(=O)n(CC(=O)Nc4c(C)cccc4C)ccn3n2)cc1	inactive: -3.09%	–
CC(C)CN(CCNC(=O)c1cc(=O)[nH]c2ccc(S(=O)(=O)N3CCCCCC3)cc12)CC(C)C	inactive: -17.8%	–
Cn1c(=O)oc2cc(S(=O)(=O)NCCC(=O)Nc3ccc(F)c(Cl)c3)ccc21	inactive: -8.57%	–
Cc1ccc(Cl)cc1NC(=O)/C(C#N)=C/c1c(C)n(Cc2ccccc2)c2ccccc12	inactive: -9.21%	–
CC1CCCCN1C(=O)CSc1nnc(-c2cccc(Cl)c2)o1 (stereo unspecified)	inactive: 49.8%	–
CC(=O)N1CCCc2cc(S(=O)(=O)N(C)CC(=O)Nc3ccc(F)c(Cl)c3)ccc21	inactive: -26.4%	–
Fc1ccc(-c2csc(-c3nc(-c4ccc(Br)s4)cs3)n2)cc1	inactive: 8.32%	–
CCOc1ccc(NC(=O)CCCN2C(=O)C(c3ccccc3)Oc3cccnc32)cc1 (stereo unspecified)	inactive: -15.4%	–
Cc1ccc(NC(=O)c2ccc3nc(Cc4ccccc4)oc3c2)cc1F	inactive: -17.1%	–
CCN(CC)c1ccc2cc(-c3nnc(-c4cccc(Cl)c4)o3)c(=O)oc2c1	inactive: 36.7%	–
CCCCN(C)CCNC(=O)Cn1ncc2c3ccccc3n(CCC)c2c1=O	inactive: -6.36%	–
Cc1ccc(NC(=O)c2ncn(-c3ccccc3)n2)c(Cl)c1	inactive: 76.5%	–
COc1ccc(C)cc1N(C)C(=O)c1sc2nc3n(c(=O)c2c1C)CCCCC3	inactive: 4.71%	–
Cc1csc2nc(-c3cccc(NC(=O)c4cccc(F)c4)c3)cn12	inactive: -14.6%	–
CCCCCn1c(=O)[nH]c2cc(C(=O)NCc3ccc(C)cc3)ccc2c1=O	inactive: -11.9%	–

Compound	activity change, negative = inhibition	Potency
CCOc1ccc(CCNC(=O)C2=C(C)C(=O)OC23CCC(C)CC3)cc1OCC (stereo unspecified)	inactive: -7.83%	–
COc1cccc(NC(=O)CSc2nc(-c3ccccc3)nc3c2Cc2cc(Cl)ccc2O3)c1	inactive: -16%	–
Cc1ccc(C(=O)c2oc3ccccc3c2NC(=O)c2nc(S(C)(=O)=O)ncc2Cl)cc1F	inactive: -7.02%	–
CCOc1cc(C#N)c(NC(=O)c2ccc(OC)c(S(=O)(=O)N3CCCC3)c2)cc1OCC	inactive: -12.2%	–
O=S(=O)(c1ccccc1)c1nc(-c2ccc(F)cc2)oc1N1CCOCC1	inactive: -18.8%	–
CCCOc1ccc(OC(=O)c2sc3ncn(Cc4cccc(F)c4)c(=O)c3c2C)cc1	inactive: -2.58%	–
O=C(c1nc(-c2ccc(Cl)cc2)n2c1CCCCC2)N1CCN(c2ccc(F)cc2)CC1	inactive: -41.4%	–
O=C1NC(=O)C(=Cc2ccc(-c3ccc(F)cc3O)o2)S1	inactive: 9.74%	–
COc1ccccc1NC(=O)N(Cc1ccco1)C1CCN(C(C)=O)CC1	inactive: -20.3%	–
COc1ccc(NC(=O)c2ccc(COc3ccccc3OC)o2)cc1OC	inactive: -17.2%	–
CCn1cc(C(=O)NCc2ccccc2)c(=O)c2cc(S(=O)(=O)N3CCCCCC3)ccc21	inactive: -5.95%	–
Cc1ccc(OCc2nc3ccccc3n2Cc2ccccc2Cl)cc1	inactive: -12.6%	–
CCCNC(=O)CCc1c(C)nc2nc(-c3cc(OC)cc(OC)c3)nn2c1C	inactive: 5.59%	–
COc1cccc(CNC(=O)CCC(=O)N2Cc3cccc(OC)c3Oc3ncccc32)c1OC	inactive: -19.8%	–
O=C(Cc1ccccc1)Nc1c(C(=O)Nc2ccccc2F)oc2ccccc12	inactive: -2.7%	–
CCc1ccc(-c2[nH]c3c(c2-c2sc(C)c(C(=O)OC)c2O)c(=O)n(C)c(=O)n3C)cc1	inactive: 7.03%	–
COc1ccc(N(C)C(=O)CCS(=O)(=O)c2cccc3nsnc23)cc1	inactive: -12.3%	–
COc1cccc2sc(N(Cc3cccnc3)C(=O)C3COc4ccccc4O3)nc12 (stereo unspecified)	inactive: -13.4%	–
Cc1c(NC(=O)c2ccccc2F)cccc1-c1nc2cccnc2s1	inactive: -9.73%	–
O=C(Cn1ncc2c(=O)oc3ccccc3c21)NCc1ccc(Cl)cc1	inactive: -13.8%	–
N=C(N)c1ccc2cc(OC(=O)c3ccc(N=C(N)N)cc3)ccc2c1	inactive	–
COc1ccc2c(c1)CCc1c(C(=O)Nc3c(C)nn(Cc4ccc(C)cc4)c3C)noc1-2	–	active: 22.4 µM
CCCN(CCC)C(=O)C1CCN(c2ncnc3c2nc2n3CCCCC2)CC1	inactive: 14.8%	–
CCOc1ccc(CCNC(=O)CN(c2ccc(C)cc2)S(=O)(=O)N(C)C)cc1OCC	inactive: -16%	–
